According to the supplement of paper PMC12217912:
The list shows a part of the results. Sequences were assembled here from the parent chain. Values near 0.05 are background.

B1: TEV protease; numbered along this chain (parent)
chain: MGESLFKGPRDYNPISSSICHLTNESDGHTTSLYGIGFGPFIITNKHLFRRNNGTLVVQSLHGVFKVKDTTTLQQHLVDGRDMIIIRMPKDFPPFPQKLKFREPQREERICLVTTNFQTKSMSSMVSDTSCTFPSGDGIFWKHWIQTKDGQCGSPLVSTRDGFIVGIHSASNFTNTNNYFTSVPKNFMELLTNQEAQQWVSGWRLNADSVLWGGHKVFMVKPEEPFQPVKEATQL

Variants of: B1
Assay: raw area under fraction-flipped curve 0-4 h after induction (AUC4h, not background-subtracted), DNA-recorder readout of cleavage of the substrate (dimensionless); higher = more cleavage of the substrate by the protease variant
Conditions: temperature: 34 °C; time window: 0-4 h after rhamnose induction
Description: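 In vivo DNA recorder in E. coli TOP10(DE3) ΔrhaA at 34 °C. Each TEVp single-site mutant (parent TEVp 0) is paired with a single-site variant of the 7-mer TEVs (canonical ENLYFQ|S). The substrate sits between flexible linkers in a Bxb1-sfGFP-TEVs-SsrA fusion, so cleavage stabilises Bxb1 and speeds flipping of a recombination array, read by NGS. The value is the raw area under the fraction-flipped curve over 0-4 h after rhamnose induction (AUC4h), with ≥20 reads per time point. It is not background-subtracted; inactive controls average about 0.047.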
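Note: Bxb1 expression induced with 0.2% (w/v) L-rhamnose at OD600 near 0.5, cultures sampled hourly, flipped fraction per protease–substrate barcode pair counted by paired-end Illumina sequencing.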

Row | Variant | area with substrate ENLYAQS | area with substrate ENLYEQS | area with substrate ENLYGQS | area with substrate ENLYHQS | area with substrate ENLYKQS | area with substrate ENLYMQS | area with substrate ENLYPQS | area with substrate ENLYSQS | area with substrate ENLYTQS | area with substrate ENLYYQS | area with substrate ENLYCQS | area with substrate ENLYNQS | area with substrate ENLYQQS | area with substrate ENLYVQS | area with substrate ENLYWQS | area with substrate ENLYDQS | area with substrate ENLYIQS | area with substrate ENLYRQS | area with substrate ENLYLQS
1 | T115F | 0.0728 | 0.0681 | 0.0723 | 0.0662 | 0.0759 | 0.0727 | 0.0561 | 0.089 | 0.0687 | 0.0662 |  |  |  |  |  |  |  |  | 
2 | S154L | 0.0788 | 0.0681 | 0.0628 | 0.0839 | 0.0679 | 0.121 | 0.117 | 0.0735 |  | 0.0774 | 0.13 | 0.105 | 0.0784 | 0.205 | 0.0972 |  |  |  | 
3 | K98M | 0.0845 |  | 0.0699 | 0.0622 | 0.0766 | 0.118 | 0.072 |  |  |  |  |  |  |  | 0.0672 | 0.0568 | 0.109 | 0.0514 | 
4 | Q198D | 0.0588 | 0.0954 | 0.0771 | 0.0794 |  | 0.0912 | 0.0708 | 0.086 |  | 0.0687 |  | 0.0585 | 0.0629 |  |  | 0.0487 | 0.146 |  | 
5 | F41T | 0.079 | 0.0654 | 0.0617 | 0.0675 | 0.0349 | 0.0729 | 0.0546 | 0.056 |  | 0.0458 | 0.088 |  |  | 0.13 | 0.0651 | 0.0624 | 0.117 | 0.0527 | 0.0525
6 | K46W | 0.063 | 0.0711 | 0.0569 | 0.0639 | 0.0579 | 0.0603 | 0.054 | 0.0725 |  |  |  | 0.0494 | 0.0545 |  | 0.0527 | 0.054 | 0.0447 | 0.0614 | 0.0503
7 | T233N | 0.0749 | 0.0675 | 0.109 | 0.0775 | 0.0573 |  | 0.0668 | 0.0671 |  | 0.0674 |  | 0.0558 |  | 0.123 |  | 0.0529 | 0.155 | 0.06 | 
8 | M122T | 0.0832 |  | 0.0652 |  | 0.0056 | 0.092 |  | 0.0896 |  | 0.0829 | 0.0783 | 0.0587 |  | 0.142 | 0.0807 |  |  |  | 
9 | L73S | 0.061 | 0.0799 | 0.0722 | 0.0539 |  | 0.0582 | 0.05 | 0.0527 |  |  |  | 0.0725 | 0.0545 | 0.0619 |  |  | 0.0717 |  | 0.0544
10 | T70H | 0.0619 | 0.0564 |  | 0.0644 | 0.0563 | 0.0666 | 0.0589 |  |  |  |  | 0.0507 |  |  |  |  |  | 0.0561 | 
11 | P225L | 0.0615 | 0.0594 |  | 0.0759 | 0.0616 | 0.0784 | 0.0632 |  | 0.0739 |  |  | 0.0724 | 0.0768 | 0.0766 | 0.0671 | 0.0879 | 0.0959 |  | 
12 | N45C | 0.0738 | 0.0514 | 0.07 | 0.0773 | 0.0782 | 0.107 | 0.0903 | 0.0798 | 0.0693 | 0.0737 | 0.0828 | 0.0621 |  | 0.0856 | 0.0749 | 0.0556 |  | 0.0739 | 
13 | T70Q | 0.0552 |  |  | 0.0608 | 0.0622 |  | 0.0715 | 0.0727 |  |  | 0.0756 |  | 0.0392 | 0.0878 |  | 0.0529 | 0.116 |  | 
14 | I164N | 0.0529 | 0.0522 |  | 0.0546 | 0.0683 | 0.0641 | 0.0536 | 0.0438 | 0.0733 |  | 0.0708 | 0.0375 | 0.0523 | 0.0475 | 0.0606 | 0.0598 |  |  | 
15 | F6M | 0.0886 | 0.0624 | 0.0708 |  | 0.0634 | 0.0838 |  |  |  |  |  | 0.075 |  | 0.0775 | 0.106 | 0.0522 |  | 0.0621 | 
16 | H47P | 0.0648 | 0.0448 | 0.0514 | 0.0751 | 0.0615 | 0.0518 | 0.059 | 0.0406 |  | 0.0616 | 0.0727 | 0.0526 |  | 0.0725 |  | 0.0641 |  |  | 0.0748
17 | L99P | 0.0755 | 0.067 | 0.0596 | 0.07 | 0.0231 |  | 0.0945 |  | 0.0727 |  |  | 0.0695 | 0.0634 |  | 0.0732 | 0.0656 | 0.111 |  | 
18 | F226I | 0.0973 | 0.0762 | 0.0664 | 0.0518 | 0.0663 | 0.0766 | 0.072 |  |  | 0.0626 |  | 0.0718 | 0.0684 |  | 0.0991 | 0.0227 | 0.129 |  | 
19 | N186P | 0.0715 | 0.0851 |  | 0.055 | 0.0595 |  | 0.0792 |  |  | 0.0484 |  | 0.0594 | 0.0633 |  |  | 0.0583 | 0.0661 |  | 0.0849
20 | L190H | 0.0555 | 0.0591 |  | 0.0571 | 0.0761 | 0.0757 | 0.069 | 0.0679 |  | 0.059 |  | 0.0735 | 0.0646 | 0.0862 | 0.0712 |  | 0.0941 |  | 
21 | I43F | 0.0638 | 0.067 | 0.058 | 0.0635 | 0.0628 | 0.0638 | 0.0656 | 0.0528 | 0.0731 | 0.0583 |  | 0.0591 | 0.0623 | 0.0961 | 0.0596 |  |  | 0.0635 | 
22 | F6Y | 0.0805 | 0.04 |  |  | 0.0277 | 0.047 | 0.0656 |  | 0.0526 |  |  | 0.084 | 0.073 |  |  |  |  |  | 0.066
23 | T23H | 0.0707 | 0.0788 | 0.0723 | 0.0655 | 0.0506 |  | 0.0667 |  | 0.0603 | 0.0582 | 0.0903 | 0.0691 | 0.0838 | 0.1 | 0.0764 | 0.0539 | 0.0989 | 0.081 | 0.0711
24 | Q198R | 0.0451 | 0.0828 | 0.102 | 0.071 | 0.0611 |  |  |  |  |  | 0.0887 | 0.0672 |  |  |  | 0.066 |  |  | 
25 | G136Y | 0.0847 | 0.0735 |  | 0.0504 | 0.061 |  | 0.0636 |  |  |  |  |  | 0.065 | 0.122 |  | 0.0484 |  | 0.067 | 
26 | D91F | 0.0693 | 0.0687 | 0.0576 | 0.0675 | 0.048 | 0.0866 | 0.0609 | 0.0502 |  | 0.0682 | 0.0801 | 0.0728 | 0.0694 |  | 0.0522 | 0.0672 | 0.106 |  | 
27 | S158D | 0.0793 | 0.07 |  |  | 0.0671 | 0.0712 |  |  | 0.0579 | 0.0526 |  |  | 0.0596 |  | 0.0704 | 0.0541 | 0.104 | 0.0302 | 
28 | I43G | 0.0415 | 0.0566 |  |  | 0.0473 | 0.0475 |  | 0.061 |  | 0.0439 | 0.0444 | 0.0527 | 0.0342 | 0.0413 | 0.0464 | 0.0359 | 0.0411 | 0.0502 | 
